Publication PMC4336329 (PLoS ONE, 2015)
The whole screen tested about 310,000 compounds, of which about 2,200 (0.71%) showed an effect of 50% or more. The effect is printed as a negative number. The list shows a part of the results.

Biological target: human ether-à-go-go-related gene (hERG) potassium channel (human, UniProt Q12809)
Assay: primary screen, population patch clamp on CHO cells stably expressing hERG

Sequence of human ether-à-go-go-related gene (hERG) potassium channel (Q12809 whole entry, looked up): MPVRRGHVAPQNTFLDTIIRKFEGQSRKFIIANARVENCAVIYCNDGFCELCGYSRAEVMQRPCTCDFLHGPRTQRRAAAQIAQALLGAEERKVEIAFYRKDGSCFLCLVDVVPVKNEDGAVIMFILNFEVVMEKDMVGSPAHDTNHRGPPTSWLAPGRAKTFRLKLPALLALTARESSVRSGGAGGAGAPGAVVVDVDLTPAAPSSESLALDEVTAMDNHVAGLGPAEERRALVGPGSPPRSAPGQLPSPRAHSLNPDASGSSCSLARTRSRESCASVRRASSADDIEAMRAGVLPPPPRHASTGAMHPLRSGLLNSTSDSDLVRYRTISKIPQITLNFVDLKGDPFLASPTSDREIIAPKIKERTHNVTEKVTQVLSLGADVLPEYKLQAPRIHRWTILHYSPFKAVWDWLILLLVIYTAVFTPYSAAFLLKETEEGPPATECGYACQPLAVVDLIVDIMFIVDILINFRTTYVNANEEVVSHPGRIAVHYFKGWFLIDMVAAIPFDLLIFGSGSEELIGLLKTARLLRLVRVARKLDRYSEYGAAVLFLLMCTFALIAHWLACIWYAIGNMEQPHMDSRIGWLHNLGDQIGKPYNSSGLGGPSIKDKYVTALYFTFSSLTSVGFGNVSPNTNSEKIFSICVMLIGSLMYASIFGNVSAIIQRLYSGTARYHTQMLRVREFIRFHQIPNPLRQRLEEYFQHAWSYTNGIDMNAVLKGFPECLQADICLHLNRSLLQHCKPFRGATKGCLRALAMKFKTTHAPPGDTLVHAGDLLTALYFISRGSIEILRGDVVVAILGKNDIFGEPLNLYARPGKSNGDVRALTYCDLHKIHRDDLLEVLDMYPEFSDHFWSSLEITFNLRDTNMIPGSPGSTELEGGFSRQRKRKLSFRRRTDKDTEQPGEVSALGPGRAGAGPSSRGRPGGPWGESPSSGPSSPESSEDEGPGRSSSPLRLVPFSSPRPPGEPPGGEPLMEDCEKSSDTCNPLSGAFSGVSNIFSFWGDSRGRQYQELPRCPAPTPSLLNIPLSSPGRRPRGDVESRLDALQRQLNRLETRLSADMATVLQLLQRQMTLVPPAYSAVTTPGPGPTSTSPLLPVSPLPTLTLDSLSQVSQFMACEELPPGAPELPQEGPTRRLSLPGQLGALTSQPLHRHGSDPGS

SMILES	hERG current change (%, negative = inhibition) at 1uM [%]
BrCC1C[n+]2c(SCc3ccccc3)nc3sc4c(c3c2O1)CCCC4.[Br-] (centres unmarked)	10.3
Fc1cccc(C2NN=C(c3ccccc3)S2)c1 (centres unmarked)	8.44
COc1ccc(NC(=O)CSc2nnc(Cc3ccccc3)o2)c(OC)c1	9.93
Cc1ccc2c(c1)C(=O)c1c(C(=O)O)cccc1-2	16.9
COc1ccc(C)cc1NC(=S)N1CCN(c2ccccn2)CC1	9.91
CCOC(=O)c1c(C)[nH]c(C(=O)COC(=O)/C=C/c2ccc3c(c2)OCO3)c1C	-0.52
CSc1nccc(NC(=O)c2cccc(Br)c2)n1	11.8
O=C(CN1C(=O)c2ccccc2C1=O)NCC(=O)OCC(=O)c1ccc(Cl)cc1	12.8
CN(C)S(=O)(=O)c1cccc(N2C(=O)CC3(CCCCC3)CC2=O)c1	20.7
Cl.O=C1C2CCN(CC2)C1Cc1ccc(OCc2ccccc2)cc1 (centres unmarked)	-0.266
Cc1ccccc1C(=O)NC(C)C(c1cccs1)N1CCOCC1 (centres unmarked)	6.32
COc1ccc(-n2nc(C)c3onc(C)c3c2=O)cc1	11.6
O=C(CSc1ccccc1C(=O)O)NCC1CCCCC1	2.99
COc1ccc(Cn2c(=O)[nH]c3cc(C(=O)N4CCN(c5ccccc5)CC4)ccc3c2=O)cc1	15.2
Cc1nc(C(C)(C)O)n(-c2ccccc2)n1	7.05
CCCNC(=O)NC(=O)COC(=O)c1ccc(S(=O)(=O)N(C)c2ccccc2OC)cc1	13.7
CC[C@@]1(c2ccccc2OC)C(=O)N(C(=O)OC)N1C(=O)OC	17.4
CC(C)(C)c1cc(OC(=O)Cc2ccccc2)ccc1O	14.2
COc1ccc(-c2[nH]ncc2CN(C)C(C)c2ccncn2)c(F)c1 (centres unmarked)	1.94
CNC(=O)c1ccc(-n2nc(C)cc2-c2ccccc2)cc1	5.22
Cn1nnc(NC(=O)CSc2nnnn2-c2ccc(F)cc2)n1	7.5
CC(=O)O.CN1CCCC(CN2c3ccccc3Sc3ccccc32)C1 (centres unmarked)	2.17

SMILES	hERG current change (%, negative = inhibition) at 1uM [%]
Cl.NCc1ccccc1	-0.942
CCCCCCC1CCC(C(=O)Nn2c(C)nc3ccccc3c2=O)CC1 (centres unmarked)	17.9
COc1cc(OC)cc(C(=O)N[C@H](C(=O)Nc2nc3ccc(S(C)(=O)=O)cc3s2)C(C)C)c1	6.08
O=C(c1ccc2nc3ccc(Cl)cc3c(=O)n2c1)N1CCC2(CC1)OCCO2	-22.8
N#C/C(=C/c1ccc(-c2ccc(C(=O)O)c(Cl)c2)o1)C(=O)NCC1CCCO1 (centres unmarked)	10.3
Cc1noc(C)c1COC(=O)c1cc2c3ccccc3n(C)c2s1	8.48
Cc1c(N(C(=O)Nc2ccccc2)C2=NCC(C)S2)c(=O)n(-c2ccccc2)n1C (centres unmarked)	-7.97
C=CCOC(=O)C(=O)/C=C/c1c(C)n(C)n(-c2ccccc2)c1=O	10.6
NS(=O)(=O)c1cccc(NC(=O)COC(=O)CN2C(=O)C3CC=CCC3C2=O)c1 (centres unmarked)	21.2
O=S(=O)(c1cccc2nonc12)N1CCCCCC1	13.5
Cc1ccc(S(=O)(=O)N2CCC(=O)N(C(COCc3ccc(C(F)(F)F)cc3)C(C)C)CC2)cc1 (centres unmarked)	-6.42
COC(=O)Oc1ccc(/C=N/NC(=O)CSCc2ccccc2Br)cc1OC	-7.75
O=C1CN(c2ccc(Cl)cc2)C(=O)CN1NC(=S)Nc1ccc(Cl)cc1	1.26
CCOC(=O)c1cnn(-c2ccccc2)c1-n1cccc1C(=O)C(=O)Nc1ccccc1C(F)(F)F	1.98
COc1cc(Cn2c(-c3ccc(O)c(OC)c3)nc3ccccc32)ccc1O	-9.9
CCn1c(=O)cc(N2CCC3(CC2)OCCO3)[nH]c1=O	15.1
COc1ccc(Br)c(C(=O)N2CCN(S(=O)(=O)c3cccs3)CC2)c1	-0.75
COc1ccccc1N1CCN(C(=O)c2cn(-c3ccccc3)nc2-c2cccnc2)CC1	-0.268
COC(=O)c1nc(N)sc1-c1ccc(Cl)c(Cl)c1	4.56
COc1ccc(CCNC(=O)CSc2nc(C)nc3sccc23)cc1OC	1.82
Cc1cc(SCC(=O)Nc2cccc(S(N)(=O)=O)c2)c(C)cc1Br	14
Cc1c(C(=O)O)sc(=S)n1CCOc1ccccc1	7.26
